Test results as given in PubChem BioAssay AID1645887 (National Center for Advancing Translational Sciences (NCATS), 2021).
Values joined by “and” are separate entries in the source; they are usually repeats but may differ in a detail not shown here. Equal entries are not always repeated. Among all 16,000 compounds or so, about 40 (0.2%) were called active. Inconclusive results (about 1%) are left out. Calls come from the whole dose curve; as a rule, active = well fitted activation curve with a large enough effect; inconclusive = small, poorly fitted or top-dose-only effect, or another doubt; inactive = no such curve, though single readings can be large or run the other way. Some of the results follow.

Molecular target: Rap guanine nucleotide exchange factor 4 (Homo sapiens) (UniProt Q8WZA2)
UniProt Q8WZA2, sequence (Q8WZA2 whole entry, looked up): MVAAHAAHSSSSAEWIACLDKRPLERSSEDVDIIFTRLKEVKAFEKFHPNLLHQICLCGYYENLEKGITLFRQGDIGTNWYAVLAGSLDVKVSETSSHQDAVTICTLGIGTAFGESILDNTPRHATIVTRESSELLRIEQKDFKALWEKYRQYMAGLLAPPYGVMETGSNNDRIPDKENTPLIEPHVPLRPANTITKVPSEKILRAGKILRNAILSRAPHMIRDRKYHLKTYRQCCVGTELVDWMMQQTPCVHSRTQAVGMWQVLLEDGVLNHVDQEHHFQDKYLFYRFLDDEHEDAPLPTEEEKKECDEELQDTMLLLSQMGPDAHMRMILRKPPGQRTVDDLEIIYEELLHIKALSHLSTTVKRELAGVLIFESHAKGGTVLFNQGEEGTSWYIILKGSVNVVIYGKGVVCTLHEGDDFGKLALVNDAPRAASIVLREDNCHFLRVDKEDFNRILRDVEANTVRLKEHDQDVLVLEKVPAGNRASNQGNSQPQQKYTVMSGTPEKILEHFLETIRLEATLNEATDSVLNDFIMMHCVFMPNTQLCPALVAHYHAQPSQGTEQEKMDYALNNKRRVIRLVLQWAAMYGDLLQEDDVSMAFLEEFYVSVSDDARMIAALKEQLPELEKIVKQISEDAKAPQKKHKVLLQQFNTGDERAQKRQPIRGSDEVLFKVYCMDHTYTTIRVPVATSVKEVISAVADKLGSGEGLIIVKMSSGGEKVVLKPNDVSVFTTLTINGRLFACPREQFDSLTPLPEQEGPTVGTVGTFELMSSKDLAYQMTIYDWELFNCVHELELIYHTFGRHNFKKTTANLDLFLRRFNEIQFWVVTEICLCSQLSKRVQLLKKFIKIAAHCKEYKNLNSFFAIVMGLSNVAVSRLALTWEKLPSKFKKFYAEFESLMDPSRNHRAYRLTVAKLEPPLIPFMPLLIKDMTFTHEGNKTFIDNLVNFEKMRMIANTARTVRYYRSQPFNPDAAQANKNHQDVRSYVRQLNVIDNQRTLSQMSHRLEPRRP
Test: Validation qHTS for agonist of cAMP-regulated guanine nucleotide exchange factor 4 (EPAC2);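 note: exchange makes BODIPY-GDP fluorescence drop when released from Rap1B; series mostly up to about 150 µM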
Conditions: EPAC2 Rap1B BODIPY-GDP exchange, fluorescence; activation: stronger effect = higher value
Summary of the method: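 Fluorescent exchange assay: 100 nM EPAC2 with 250 nM RAP1B-BODIPY-GDP and 50 uM GDP; compound added, 5 min at room temperature, then read (ex 480/em 540 nm) every 5 min for 30 min. Normalized to 6.5 mM cAMP agonist control.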
% is set by controls: 0 for no effect and ±100 for the full control effect.

activation, inactive:
COc1ccc(-n2c(=O)c(-c3cccs3)nc3cnc(N4CCOCC4)nc32)cc1 3.93%, O=C1[C@H]2[C@H](C=CC[C@H]2C(=O)N2CCN(c3ccccc3)CC2)CCN1Cc1ccc(Cl)c(Cl)c1 -0.791%, CCC1CN(CC(=O)NC(C)CO)Cc2cc(OC)ccc2O1 (configuration not stated) -13.9%, NCCCCCCNS(=O)(=O)c1cccc2c(Cl)cccc12 -17% and 0.53% and 2.82%, CCC(C)(C)OC(=O)N[C@@H](Cc1c[nH]c2ccccc12)C(=O)N[C@@H](CCSC)C(=O)N[C@@H](CC(=O)O)C(=O)N[C@@H](Cc1ccccc1)C(N)=O 79.6%, Cc1cc2ccccc2c[n+]1C1CCCCC1 -19.4%, Cc1c(C2CCN(CCc3ccccc3)CC2)noc1-c1ccc(Cl)cc1 -6.63% and -12.9%, COc1ccc2cc1Oc1ccc(cc1)CC1c3cc(c(OC)cc3CCN1C)Oc1c(OC)c(OC)cc3c1C(C2)N(C)CC3 (configuration not stated) -8.97%, CN1C2CCC1CC(OC(c1ccccc1)c1ccccc1)C2 (configuration not stated) -20.7%, Cc1cccc(C(=O)NCc2nc(-c3ccccc3NC(=O)C3CCCO3)oc2C)c1 (configuration not stated) -3.17%, Cc1cnc(-n2ncc(C(=O)N(C)CC3CCCN(C)C3)c2C2CC2)nc1-c1cccs1 (configuration not stated) 2.98%, CC(=O)N1CCC2(CCCN(C(=O)Nc3cccc(C#N)c3)C2)CC1 -3.71%, COc1ccccc1-c1cncnc1NCCN1CCOCC1 -18.9%, CC(=O)Oc1c(C)c(C)c2c(c1C)CC[C@@](C)(CCC[C@H](C)CCC[C@H](C)CCCC(C)C)O2 -47.1% and -2.92% and -29%, COc1ccccc1CCn1c(=O)c(CCc2ccccc2)nc2cncnc21 4.36%, c1cncc(-c2cc(NCc3cccs3)ncn2)c1 -8.01%, COc1cc(C)c(CN2CCc3nnc(C(C)NC(=O)c4cccnc4)n3CC2)cc1C (configuration not stated) -6.85%, C[C@]12CC[C@@H]3c4ccc(O)cc4CC[C@H]3[C@@H]1CC[C@@H]2O -3.98% [middle of 4 runs], Cc1noc(C)c1-c1cncnc1NCc1ccccc1 -14.7%, CCCC(CCC)C(N)=O -9.29%, COc1cc(=O)n2c(c1C(=O)N(C)Cc1nonc1C)CCN(Cc1ccccc1F)CC2 7.64%, C=C[C@@H]1c2ccccc2N(S(=O)(=O)c2ccc(C)cc2)[C@H](c2ccccc2)C1(C#N)C#N -17.4%
